# Test results: PubChem BioAssay (NCATS)
# Several values for one entry are separate records, joined by “and”; a condition that tells them apart may be missing. Identical values can stand only once. This list was built around the results that the source calls inconclusive (neither active nor inactive); the mix of calls is not that of the screen. Where the call is inconclusive, the potency comes from a doubtful curve fit. Activity calls are given as the source filed them. The call rests on the fitted dose curve; in most records, active means well fitted curve in the direction sought with a large enough effect; inconclusive means small, poorly fitted or top-dose-only effect, or another doubt; inactive means no such curve, though single readings can be large; an effect the other way counts as inactive or inconclusive.
# How the values were obtained:
# [1] = qHTS of pediatric cancer cell lines to identify multiple opportunities for drug repurposing: Primary screen for DAOY cells (AID 1347090); details: DAOY medulloblastoma viability, CellTiter-Glo luminescence, 48 h; activity change, negative = cytotoxic: at 46 µM (top of the series) unless noted; further: nearly all actives have a fitted effect of over 55% in size
# Outline: (§1)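 Eight- or eleven-point concentration series, 48 h treatment at 37 degrees C in growth media; readout CellTiter-Glo luminescence. Potency and efficacy were taken from the concentration-response curves.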
# [2] = qHTS of pediatric cancer cell lines to identify multiple opportunities for drug repurposing: Primary screen for A673 cells (AID 1347092); details: A673 Ewing sarcoma viability, CellTiter-Glo ATP luminescence, 48 h; activity change, negative = cytotoxic: at 46 µM (top of the series); further: nearly all actives have a fitted effect of over 45% in size
# Outline: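 Cells are plated, rested 5 h, dosed by pintool, incubated 48 h, then lysed with CellTiter-Glo and read by luminescence. DMSO is the neutral control; bortezomib at 2.3 uM final is the positive control.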
# [3] = qHTS of pediatric cancer cell lines to identify multiple opportunities for drug repurposing: Primary screen for SJ-GBM2 cells (AID 1347091)
# Outline: as §1
# [4] = qHTS of pediatric cancer cell lines to identify multiple opportunities for drug repurposing: Primary screen for BT-37 cells (AID 1347094)
# Outline: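 Cells seeded at 500-1,000 cells/well in growth media, rested 5 hours at 37 degrees C, 5% CO2, then dosed; MIPE compounds at 11-point (from 0.78 nM) and NPC at 8-point (from 0.59 nM) final concentrations. Viability by CellTiter-Glo luminescence after 48 hours.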
# [5] = qHTS of pediatric cancer cell lines to identify multiple opportunities for drug repurposing: Primary screen for SK-N-MC cells (AID 1347093); details: SK-N-MC viability, CellTiter-Glo luminescence, 48 h; activity change, negative = cytotoxic: at 46 µM (top of the series)
# Outline: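 Metabolically active cells were quantified by ATP-dependent luminescence (CellTiter-Glo, 15 min at room temperature) following 48 h treatment. Cells had been plated at 500-1,000 per well and settled for 5 h beforehand.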
# Potency means the concentration at half of the fitted maximal effect; tags describe the fitted curve by direction and shape.
SMILES,Potency [1],Potency [2],Potency [3],Potency [4],Potency [5]
O=C(NC(Cc1cc(=O)[nH]c2ccccc12)C(=O)O)c1ccc(Cl)cc1 (stereo not given),"inconclusive: 29.6 µM [cytotoxic, single point]","inconclusive: 29.6 µM [cytotoxic, single point]",–,–,–
O=C(O)CCC1CCC(c2cc(F)ccc2F)(S(=O)(=O)c2ccc(Cl)cc2)CC1 (stereo not given),active: 11.8 µM,–,"inconclusive: 2.35 µM [cytotoxic, full curve, poor fit]","inconclusive: 2.73 µM [cytotoxic, full curve]",–
C[C@]1(c2nc3c(C(N)=O)cccc3[nH]2)CCCN1,"inconclusive: 14.8 µM [cytotoxic, partial curve]",–,"inconclusive: 16.6 µM [cytotoxic, partial curve, poor fit]","inconclusive: 38.5 µM [cytotoxic, single point]",–
C[C@@]1(C(=O)Nc2ccc(F)nc2)CCCN1c1nc(Nc2cc(C3CC3)[nH]n2)c2cccn2n1,"inconclusive: 0.469 µM [cytotoxic, full curve]",–,active: 0.187 µM,"inconclusive: 17.2 µM [cytotoxic, partial curve]",–
OC[C@H]1O[C@@H](Oc2ccc(O)cc2)[C@H](O)[C@@H](O)[C@H]1O,"inconclusive: 37.2 µM [cytotoxic, single point]","inconclusive: 37.2 µM [cytotoxic, single point]",–,–,–
N#Cc1ccc(C(c2ccc(C#N)cc2)n2cncn2)cc1,"inconclusive: 14.8 µM [cytotoxic, partial curve, poor fit]","inconclusive: 37.2 µM [cytotoxic, single point]",inactive,"inconclusive: 13.7 µM [cytotoxic, partial curve, poor fit]","inconclusive: 20.9 µM [cytotoxic, partial curve, poor fit]"
c1cc(-c2sc(-c3ccncc3)c(-c3ccncc3)c2-c2ccncc2)ccn1,"inconclusive: 18.7 µM [cytotoxic, partial curve, poor fit]","inconclusive: 14.8 µM [cytotoxic, partial curve]",–,–,–
COc1cc(NC(=O)c2ccc(-c3ccc(Cl)cc3)o2)cc(OC)c1,active: 2.96 µM,–,"inconclusive: 23.5 µM [cytotoxic, single point]","inconclusive: 21.7 µM [cytotoxic, partial curve, poor fit]",–
CC(C)OC(=O)C(C(=O)OC(C)C)=C1SC=CS1,"inconclusive: 18.7 µM [cytotoxic, partial curve, poor fit]","inconclusive: 14.8 µM [cytotoxic, partial curve, poor fit]","inconclusive: 10.5 µM [cytotoxic, partial curve]","inconclusive: 27.3 µM [cytotoxic, partial curve]","inconclusive: 37.2 µM [cytotoxic, single point]"
CC(C)(C)C(=O)Oc1ccc2c(c1)nc(NC(=O)c1cccc([N+](=O)[O-])c1)n2CCCO,"inconclusive: 7.43 µM [cytotoxic, full curve, poor fit]",–,"inconclusive: 23.5 µM [cytotoxic, single point]","inconclusive: 21.7 µM [cytotoxic, partial curve]",–
Cc1ccc(C(=O)c2cc(O)c(O)c([N+](=O)[O-])c2)cc1,"inconclusive: 33.5 µM [cytotoxic, single point]","inconclusive: 33.5 µM [cytotoxic, single point]","inconclusive: 21.1 µM [cytotoxic, single point] and inconclusive: 20.9 µM [cytotoxic, partial curve]","inconclusive: 30.9 µM [cytotoxic, single point] and inconclusive: 24.3 µM [cytotoxic, single point]",–
Cc1nc(C(=O)NCC(=O)O)c(O)c2ccc(Oc3ccccc3)cc12,inactive,inactive,–,–,"inconclusive: 18.7 µM [cytotoxic, partial curve]"
Cc1ccc(/C=N/NC(=O)c2ccccc2Oc2ccccc2)o1,"inconclusive: 29.6 µM [cytotoxic, single point]",–,–,"inconclusive: 27.3 µM [cytotoxic, single point]",–
